This is an account of results in ChEMBL document CHEMBL1201862, “PubChem BioAssay data set” (2004).

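Cultured in 96-well plates, cells were exposed to test compound for 48 hours across five concentrations. The concentration for 50% growth inhibition is given as GI50.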 Calls of active or inactive are those of the source. No stated cut-off is given here; in the data, active = GI50 up to about 1.1 µM and inactive = higher.

This assay deals with NCI-H322M. Description: NCI-60 cell line screen, 48 h.
For the molecule `O=S1(=O)CCN(c2ccccc2CC(c2c[nH]c3ccccc23)c2c[nH]c3ccccc23)CC1`, the GI50 is inactive: 14 µM.

As for `COc1ccc(OC)c(-c2cc(C(=O)O)c3cc4ccccc4cc3n2)c1`, the GI50 is inactive: > 100 µM.

For `Cc1cccc2c1c1ccc3c(c1n2C)C(=O)C=CC3=O`, the GI50 is inactive: 16.7 µM.

In the case of `O=C(O)c1cnc2cc(OCc3ccccc3)ccc2c1O`, the GI50 was inactive: 19.8 µM.

`O=C(O)CNc1ncc2c(n1)-c1ccccc1OC2`: the GI50 was inactive: > 100 µM.

As for `Cn1c(=O)cc(Nc2ccc(N)cc2)[nH]c1=O`, the GI50 is inactive: > 100 µM.

Consider `CC(C)(C)N/N=C(\C(=O)NC1=C(Cl)C(=O)c2ccccc2C1=O)C1C=CCS1(=O)=O` (stereo not given), for which the GI50 is inactive: 15.4 µM.

Turning to `CC(=O)OC1OC(c2ccoc2)C[C@@]12C1CCC3O[C@]3(C)[C@]1(C)C[C@H](OC(C)=O)[C@H]2C` (stereo not given in full), the GI50 was inactive: > 75 µM.

Turning to `O=[N+]([O-])c1ccc2c(c1)Cc1cc(/N=C/c3ccc4c(c3)OCO4)ccc1-2`, the GI50 was inactive: > 100 µM.

As for `Cc1ccc(NC(=O)CCc2n[nH]c(=S)o2)cc1`, the GI50 is inactive: > 100 µM.

Turning to `O=C(O)CSCC(=O)Nc1ccc2cccc3c2c1CC3`, the GI50 was inactive: > 100 µM.

Take `COc1ccc(C2=C[C@]3(O)CCCN3C[C@@H]2c2ccc(OC)c(OC)c2)cc1`: the GI50 was active: < 0.0001 µM.

Regarding `CC1OC(CC(=O)O)Cc2c(O)c3c(c(O)c21)C(=O)C=C(C1=CC(=O)c2c(O)c4c(c(O)c2C1=O)CC(CC(=O)O)OC4C)C3=O` (stereo not given), the GI50 is inactive: 59.2 µM.

With `NC(N)=NCCC[C@H](N)C(=O)NCC(=O)N[C@@H](CC(=O)O)c1ncc(NC(=O)C(F)(F)F)o1`, the GI50 is inactive: > 25 µM.

With `Cc1ccc(/C=N/C23CC4CC(CC(C4)C2)C3)cc1`, the GI50 is inactive: > 100 µM.

In the case of `COc1cc2c3c(c1OC)-c1ccccc1C(C(O)c1ccccc1)C3N(C)CC2` (stereo not given), the GI50 is inactive: 64.7 µM.

Regarding `CCOC(=O)/C(=C\c1ccc(OCc2ccccc2)c(OC)c1)C(=O)c1ccccc1`, the GI50 is inactive: 48 µM.

With `O=C(O)c1ccccc1[Se][Se]c1ccccc1C(=O)O`, the GI50 was inactive: 29.1 µM.

Turning to `CC(C)(C)c1ccccc1NS(=O)(=O)c1ccccc1`, the GI50 was inactive: > 100 µM.

For `O=C(O)C1C2CCC(C2)C1c1ccccc1` (stereo not given), the GI50 is inactive: > 100 µM.

As to `COc1ccc2c(c1)Oc1cc(O)ccc1[C@@H]2c1ccccc1C(=O)NC(C)c1ccccc1` (stereo not given in full), the GI50 was inactive: 15.5 µM.

As for `Clc1sc(Cl)c2c1[C@@H](Cl)C[C@@H]2Br`, the GI50 is inactive: > 100 µM.

With `CNC1C(O)C(OC2C(N)CC(N)C(OC3OC(C(C)O)C(O)C(O)C3N)C2O)OCC1(C)O` (stereo not given), the GI50 is inactive: > 100 µM.

`Cc1cc2ncn(C3CCCCO3)c2cc1C` (stereo not given): the GI50 was inactive: > 100 µM.

For the molecule `N#Cc1c(C(N)=O)ncn1Cc1ccccc1`, the GI50 was inactive: > 100 µM.

As to `Cc1cccc(N2C(=O)C3ON(C(C(N)=O)c4ccccc4)C(c4c5ccccc5c(Cl)c5ccccc45)C3C2=O)c1C` (stereo not given), the GI50 was inactive: 14.6 µM.

As for `COc1ccc(/C=N/NC(=O)NCCCN(C)C)cc1`, the GI50 was inactive: > 100 µM.

Turning to `CCOC(=O)CCC(C(=O)OCC)n1nnc2ccc(Nc3c(C)[n+]([O-])c4cc(Cl)ccc4[n+]3[O-])cc21` (stereo not given), the GI50 is inactive: 37.8 µM.

Regarding `COc1nc2c(c(O)c(C)c(=O)n2OC2OC(COC(C)=O)C(OC(C)=O)C(OC(C)=O)C2OC(C)=O)c(=O)n1C` (stereo not given), the GI50 is inactive: > 100 µM.

For the molecule `O=S1(=O)OCCOS(=O)(=O)C1(F)Cc1ccccc1`, the GI50 was inactive: > 100 µM.

On to `Cc1cc(S(=O)(=O)N/C(=C(\C#N)C(=O)c2ccccc2)[n+]2ccc(N(C)C)cc2)c([S-])cc1Cl`, for which the GI50 was active: 0.285 µM.

For `CCOC(=O)C1=C(OS(=O)(=O)C(F)(F)F)CCCC1`, the GI50 was inactive: > 100 µM.

In the case of `O=c1[nH]c(=O)n(C2OC(CO)C(O)C(O)C2O)cc1F` (stereo not given), the GI50 was inactive: > 100 µM.

As for `CC(C)(c1ccccc1)c1ccc(Oc2ccc3c(c2)-c2nc-3nc3[nH]c(nc4nc(nc5[nH]c(n2)c2ccc(Oc6ccc(C(C)(C)c7ccccc7)cc6)cc52)-c2cc(Oc5ccc(C(C)(C)c6ccccc6)cc5)ccc2-4)c2ccc(Oc4ccc(C(C)(C)c5ccccc5)cc4)cc32)cc1`, the GI50 is inactive: > 100 µM.

With `COc1ccc2c3c(n(Cc4ccccc4)c(=O)c2c1)-c1cc(OC)c(OC)cc1C3C` (stereo not given), the GI50 is inactive: 33.7 µM.

Turning to `COC(=O)c1ccccc1NC(=O)C(=O)NNC(=O)c1ccncc1`, the GI50 was inactive: > 100 µM.

With `C/C(=C\c1ccccc1)C(=O)c1c(C)cc(C)cc1C`, the GI50 is inactive: > 100 µM.

For `Nc1ccccc1S(=O)(=O)c1ccccc1`, the GI50 was inactive: > 100 µM.

`COc1cc2c(cc1OC)C(Cl)C(c1ccc(F)cc1)=C2Cl` (stereo not given): the GI50 is inactive: 17.1 µM.

On to `CCc1ccc2oc(=O)ccc2c1`, for which the GI50 was inactive: > 100 µM.

On to `O=C1/C(=C\c2ccccc2)c2ccccc2N1/N=C\c1ccccc1`, for which the GI50 is inactive: 91.2 µM.

As for `COC(=O)C1=CCC2c3[nH]c4ccccc4c3CCN2C1` (stereo not given), the GI50 was inactive: > 354 µM.

With `COc1ccc2c(C(=O)c3c(C)n(CCN4CCOCC4)c4ccccc34)cccc2c1`, the GI50 is inactive: > 100 µM.

As to `O=c1nc(NC(c2ccccc2)(c2ccccc2)c2ccccc2)ccn1CCO`, the GI50 was inactive: > 100 µM.

Take `COC(=N)C12C(N)=NC(OC)(OC)C1(C#N)C21C(=O)N(c2ccccc2)N=C1C` (stereo not given): the GI50 is inactive: > 100 µM.

On to `COc1cc(Nc2nc3cc(C(F)(F)F)ccc3n3cccc23)cc(OC)c1OC`, for which the GI50 was inactive: > 100 µM.

`O=C(c1cc2c(c3ccccc13)NC1(CCCCC1)N=C2C(F)(F)F)C(F)(F)F`: the GI50 is inactive: 11.2 µM.

For `O=C1NC2(O)c3ccccc3C(=O)C2(O)N1c1ccccc1` (stereo not given), the GI50 is inactive: > 100 µM.

As for `COC(=O)C1=C(C(=O)OC)C2(c3ccccc3)c3ccccc3C(=O)C1N2C1CCCCC1` (stereo not given), the GI50 was inactive: > 100 µM.

Consider `CCCCCCCCCCCCOCCCCCCCCC/C=C/c1ccc2c(c1)OCCOCCOCCOCCO2`, for which the GI50 is inactive: 80.9 µM.

Consider `Oc1cccc2cc(Br)cnc12`, for which the GI50 was inactive: 29.2 µM.

Consider `CC(=O)OCC(OC(C)=O)C(OC(C)=O)C(OC(C)=O)C(=O)CNn1c(-c2ccc(C)cc2)nc2ccccc2c1=O` (stereo not given), for which the GI50 is inactive: > 100 µM.

Turning to `C[C@@H]1CC[C@@H](C)[C@](C)(CCc2ccoc2)C/C=C\C=C/1C(=O)O`, the GI50 was inactive: > 50 µM.

Take `NC(=S)NNc1c([N+](=O)[O-])cnn(-c2ccccc2)c1=O`: the GI50 was inactive: 17.9 µM.

Take `CC(C)c1cc(=O)[nH]c2cc(N)ccc12`: the GI50 was inactive: > 100 µM.

Take `COc1ccc(OC)c(NC(=O)CCC/C(CC(=O)c2ccc(O)c(OC)c2)=N\NC(=O)C[N+](C)(C)C)c1`: the GI50 is inactive: > 100 µM.

For `COc1ncc(C#CC(=O)c2ccccc2)c(OC)n1`, the GI50 is inactive: 17.3 µM.

As for `COc1ccc(N[S+]([O-])CCCc2ccccc2)cc1` (stereo not given), the GI50 is inactive: > 100 µM.

Turning to `Nc1nc(-c2ccccc2)c(Cl)c(-c2cc(Cl)ccc2O)n1`, the GI50 is inactive: 20.8 µM.

As to `Cc1nc(-c2nc(C)c(C(=O)NN(C)C)s2)sc1C(=O)NN(C)C`, the GI50 is inactive: > 100 µM.

Regarding `CC(C)(C)c1ccc2c(c1)C#Cc1cc(C(C)(C)C)ccc1OCCCO2`, the GI50 was inactive: > 100 µM.

As to `CC(C)(C)NC(=O)C12C3C4C1C1C2C3C41C(=O)NC(C)(C)C` (stereo not given), the GI50 is inactive: > 100 µM.

Turning to `CC(NNC(=O)CC(=O)N(C(=O)c1ccccc1)c1ccc(Cl)cc1)c1cc2ccccc2oc1=O` (stereo not given), the GI50 is inactive: > 10 µM.

Regarding `CC(=O)OCC(OC(C)=O)C(OC(C)=O)C(/C=N\Nc1nc2ccccc2c(=O)[nH]1)=N\Nc1nc2ccccc2c(=O)[nH]1` (stereo not given), the GI50 is inactive: > 100 µM.

Turning to `CCOC(=O)C1=C(C)N(c2ccc(C)cc2)C2(O)C=CC(O)=C3C(=O)c4ccccc4C(=O)C312` (stereo not given), the GI50 is inactive: 36.1 µM.

Turning to `C/C=C(/C)C(=O)O[C@H]1CCN2CC=C(COC(=O)[C@@](O)([C@H](C)OC)C(C)(C)O)[C@H]12`, the GI50 is inactive: > 100 µM.

For the molecule `COc1ccc(/C(Cl)=C(\C=O)c2ccc([N+](=O)[O-])cc2)cc1OC`, the GI50 is inactive: 15.1 µM.

As to `COc1cc(/C=C\c2ccccn2)cc(OC)c1OC`, the GI50 is inactive: > 100 µM.

`NC(=O)C(=CNC(=S)Nc1cccc(C(F)(F)F)c1)C(N)=O`: the GI50 was inactive: > 100 µM.

Regarding `CC1CCC(C(C)(C)c2ccccc2)C(=O)C1` (stereo not given), the GI50 is inactive: > 100 µM.

With `O=C(c1ccco1)N(Cc1ccco1)C(=S)Nc1ccccc1`, the GI50 was inactive: 41.9 µM.

On to `O=C1[C@H]2ON(c3ccccc3)C(c3ccccc3Cl)[C@H]2C(=O)N1c1ccc(Cc2ccc(N3C(=O)[C@@H]4ON(c5ccccc5)C(c5ccccc5Cl)[C@@H]4C3=O)cc2)cc1` (stereo not given in full), for which the GI50 is inactive: > 100 µM.

Consider `COc1cc2c[n+]3ccc4cc(OC)c(OC)cc4c3cc2cc1O`, for which the GI50 was inactive: > 100 µM.

For `CNC(=O)C1CCC(=O)N1CN(C(C)=O)c1ccccc1` (stereo not given), the GI50 is inactive: > 100 µM.

As for `CCCCCCCCCC[C@@H](O)[C@@H]1CC[C@@H]([C@@H]2CC[C@@H]([C@@H](O)CCCCCCCCCCC(O)CC3=CC(C)OC3=O)O2)O1` (stereo not given in full), the GI50 was inactive: 7.33 µM.

`C[C@H]1CCC2C(CN3CCCCC3)C(=O)OC2[C@]2(C)C(=O)CC(N3CCCCC3)C12O` (stereo not given in full): the GI50 was inactive: 13.5 µM.

Consider `O=C(O)CCC(=O)c1ccc2ccc3cccc4ccc1c2c34`, for which the GI50 is inactive: 79.4 µM.

Regarding `CN(C)CCCNc1c2ccccc2[n+]([O-])c2ccccc12`, the GI50 is inactive: 43.5 µM.

Turning to `Nc1[nH]c(Nc2ccc(Cl)c(Cl)c2)nc2ncnc1-2`, the GI50 was inactive: 14.9 µM.

In the case of `Cc1c2cc[n+](C)cc2c(C)c2c1[nH]c1ccccc12`, the GI50 is active: 0.755 µM.
